PubChem BioAssay AID1476 (National Center for Advancing Translational Sciences (NCATS), 2009)
Among all 200,000 compounds or so, about 4,500 (2.2%) were called active. The shares of active, inactive and inconclusive entries below differ from those in the screen. The call rests on the fitted dose curve; in most records, active means well fitted inhibition curve with a large enough effect; inconclusive means small, poorly fitted or top-dose-only effect, or effect the other way; inactive means flat fitted curve, though single readings scatter. Where the call is inconclusive, the potency comes from a doubtful curve fit.

What follows are molecules tested against Cruzipain (Trypanosoma cruzi) (UniProt P25779) (assay: qHTS Assay for Promiscuous and Specific Inhibitors of Cruzain (without detergent)). Details: purified cruzain, Z-FR-AMC fluorescence, no detergent.
Procedure, shortened: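 Purified cruzain at 1.5 nM, pre-incubated 15 min with compound at room temperature in 100 mM sodium acetate pH 5.5, 5 mM DTT, 0.00005% Triton X-100. Reaction started with 2 uM Z-FR-AMC; AMC fluorescence increase over 60 s gives rate.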
Further: nearly all actives have a fitted effect of over 40% in size.
Potency means the concentration at half of the fitted maximal effect; tags describe the fitted curve by direction and shape.
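Wherever max response, negative = inhibition is given: plate controls were enzyme without inhibitor for no effect and buffer without enzyme for full effect.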

Sequence of UniProt P25779 (P25779 whole entry, looked up): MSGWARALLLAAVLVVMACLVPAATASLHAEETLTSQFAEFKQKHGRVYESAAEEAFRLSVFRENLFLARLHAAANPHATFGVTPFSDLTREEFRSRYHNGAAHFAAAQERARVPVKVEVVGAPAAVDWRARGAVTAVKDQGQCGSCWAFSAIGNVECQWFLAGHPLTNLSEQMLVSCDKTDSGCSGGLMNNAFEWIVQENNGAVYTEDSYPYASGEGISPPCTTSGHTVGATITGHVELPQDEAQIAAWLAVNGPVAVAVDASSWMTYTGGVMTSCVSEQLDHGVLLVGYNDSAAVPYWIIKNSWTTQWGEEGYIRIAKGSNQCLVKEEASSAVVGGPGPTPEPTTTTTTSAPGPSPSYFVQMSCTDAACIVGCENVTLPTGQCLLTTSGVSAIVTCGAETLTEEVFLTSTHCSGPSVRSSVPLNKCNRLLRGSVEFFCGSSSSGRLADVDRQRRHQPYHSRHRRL

Row | Structure (SMILES) | Potency | max response, negative = inhibition
1 | Cc1ccc(-c2c(C(=O)N3CCN(c4cccc(C)c4C)CC3)oc(=O)c3ccccc23)cc1 | inconclusive: 31.6 µM [inhibitor, single point] | 
2 | Cc1cccc(NC(=O)Cn2cc(S(=O)(=O)c3ccc(F)cc3)c(=O)c3cc4c(cc32)OCO4)c1 | inconclusive: 25.1 µM [inhibitor, single point] | 
3 | Cc1ccc2nc(/N=C(\N)NC(=O)N3c4ccccc4Sc4ccccc43)nc(C)c2c1 | inconclusive: 39.8 µM [inhibitor, single point] | 
4 | CN1CCN(c2ncc3ncc(=O)n(-c4ccccc4)c3n2)CC1 | active: 20 µM | 
5 | CC(C)=CC(=O)Nc1nnc(-c2ccccc2)s1 | inconclusive: 25.1 µM [inhibitor, single point] | 
6 | CC(C)(C)c1ccc(OCC2CO2)cc1 (configuration not stated) |  | inactive: -0.814%
7 | CC(=O)c1ccc(NC(=O)C2CCN(S(=O)(=O)c3ccc4c(c3)CCCN4C(=O)C3CCC3)CC2)cc1 |  | inactive: -0.136%
8 | O=C(Nc1ccccn1)C(NS(=O)(=O)c1cccc2nsnc12)c1ccccc1 (configuration not stated) | inconclusive: 31.6 µM [inhibitor, single point] | 
9 | CCOC(=O)C1CCN(Cc2coc3c(Cl)cc(Cl)cc3c2=O)CC1 | inconclusive: 31.6 µM [inhibitor, single point] | 
10 | COc1ccc(Nc2ccc3cc(S(=O)(=O)N4CCCC4)ccc3n2)cc1Cl | active: 25.1 µM | 
11 | Cc1cc2nn(-c3cccc4ccccc34)nc2cc1N | active: 15.8 µM | 
12 | COC(=O)Cc1c(C)c2ccc(O)c(CN3CCCC(C)C3)c2oc1=O (configuration not stated) | inconclusive: 3.16 µM [activator, single point] | 
13 | CC(Oc1ccc(Cl)cc1)C(=O)NCCN1C(=O)S/C(=C\c2cccnc2)C1=O (configuration not stated) | inconclusive: 25.1 µM [activator, single point] | 
14 | COC(=O)c1cc(OC)c(OC)cc1NC(=O)C(C)Sc1ccc(C)cc1 (configuration not stated) | inconclusive: 31.6 µM [activator, single point] | 
15 | COC(=O)C1=C(C)N=C2SC(C)C(=O)N2C1c1ccc(C(=O)OC)cc1 (configuration not stated) | inconclusive: 31.6 µM [activator, single point] | 
16 | Cc1ccc2[nH]cc(C(c3ccccc3)c3cccs3)c2c1 (configuration not stated) |  | inactive: -22.7%
17 | COc1cc(OC)c(NC(=O)c2ccc3nc(C(C)C)oc3c2)cc1Cl | inconclusive: 39.8 µM [activator, single point] | 
18 | Cc1ccc(-c2nc(-c3nccc4ccccc34)oc2-c2ccccc2)cc1 |  | inactive: -3.65%
19 | c1ccc(-c2csc(Nc3ncccn3)n2)cc1 | inconclusive: 31.6 µM [inhibitor, single point] | 
20 | COc1ccccc1C(=O)Nc1ccc(Oc2ncnc3sc(-c4ccccc4)cc23)cc1 | active: 6.31 µM | 
21 | Cc1ccc(C2CCN(C(=O)c3cnn(-c4ccccc4Cl)c3C3CCN(C(=O)OC(C)(C)C)CC3)C2)cc1 (configuration not stated) | inconclusive: 12.6 µM [activator, partial curve] | 

Row | Structure (SMILES) | Potency | max response, negative = inhibition
22 | CC(=O)c1cccc(-n2c(=O)c3c4c(sc3n(Cc3ccccc3Cl)c2=O)CN(C(C)=O)CC4)c1 |  | inactive: 2.97%
23 | CCOc1cc(C(=O)N2CCc3cc(OC)c(OC)cc3C2)ccc1OC(F)F | inconclusive: 39.8 µM [activator, single point] | 
24 | CCCCN(CC)C(=O)Cn1c(=O)n(-c2ccc(OCC)cc2)c(=O)c2c3c(sc21)CCC3 |  | inactive: -9.8%
25 | CCOc1ccc(NC(=O)c2cccc3c2C(=O)N(Cc2cccnc2)C3)cc1 | inconclusive: 39.8 µM [activator, single point] | 
26 | CCOc1ccc(CNC(=O)c2ccc(Sc3ccc(C)cc3)c(NC(C)=O)c2)cc1OC | inconclusive: 39.8 µM [activator, single point] | 
27 | COc1ccc(CNC(=O)c2cc3ccccn3n2)c(OC)c1 |  | inactive: -5.76%
28 | Clc1ccc(CSCc2ccc(Cl)cc2Cl)c(Cl)c1 |  | inactive: -4.33%
29 | CCOc1ccccc1NC(=O)c1ccc(F)c(S(=O)(=O)N2CCC3(CC2)OCCO3)c1 | inconclusive: 39.8 µM [activator, single point] | 
30 | O=C(COc1ccc(Cl)cc1)Nc1cc(-c2ccccc2)no1 | inconclusive: 20 µM [inhibitor, single point] | 
31 | CN(C)c1ccc(C2C3C(=O)N(c4ccc(C(=O)O)cc4)C(=O)C3ON2c2ccccc2)cc1 (configuration not stated) | inconclusive: 39.8 µM [activator, single point] | 
32 | CCc1ccc(-c2nc(CSCC(=O)NCCCN3CCCC3=O)c(C)o2)cc1 | inconclusive: 39.8 µM [activator, single point] | 
33 | CC1CCc2nc(NC(=O)CSc3nc4ccccc4o3)sc2C1 (configuration not stated) |  | inactive: -16.5%
34 | COc1ccc(NC(=O)C(F)(OC)C(F)(F)F)c(OC)c1 (configuration not stated) |  | inactive: -2.89%
35 | O=C(Nc1ccn(-c2ccccc2)n1)c1ccc(S(=O)(=O)N2CCCCCC2)cc1 | inconclusive: 31.6 µM [inhibitor, single point] | 
36 | Cc1nn(-c2ccccc2)c(OC(=O)c2ccc(Br)cc2)c1S(=O)(=O)c1ccccc1 |  | inactive: -2.7%
37 | Cc1ccc(C)c(N2CCN(C(=O)c3cccc(-n4c(C)nc5cccnc54)c3)CC2)c1 | inconclusive: 31.6 µM [activator, single point] | 
38 | Cc1ccc(S(=O)(=O)Nc2cc(C(=O)N3CCOCC3)ccc2N2CCCCC2)cc1 | inconclusive: 39.8 µM [activator, single point] | 
39 | CCOc1ccc(NC(=O)Cn2c(=O)n(CCc3ccccc3)c(=O)c3c4c(sc32)CN(C(C)=O)CC4)cc1 | inconclusive: 25.1 µM [activator, partial curve] | 
40 | CCOc1cc(/C=N/NC(=S)Nc2ccccc2C(F)(F)F)ccc1OCC(=O)N1CCOCC1 | inconclusive: 12.6 µM [activator, partial curve] | 
41 | COc1ccccc1N1CCN(/N=C/c2cc(OC)c(OC)c(OC)c2)CC1 | inconclusive: 39.8 µM [activator, single point] | 
42 | CCN(c1ccc(OC)cc1)S(=O)(=O)c1c(C(=O)N2CCCCCC2)c(C)n(C)c1C | inconclusive: 31.6 µM [activator, single point] | 
